From publication PMC10668032
The list shows a part of the results. At the low end of the ranking, values are background and their order means little.

The sequences below were run against SIX1-Q177R homeodomain (UniProt Q15475) (assay: universal protein binding microarray). Conditions: Universal all-10-mer PBM (8x60K, AMADID 030236), 300 nM GST-tagged protein, Alexa Fluor 488 anti-GST; buffer, salt, pH and temperature not stated; high values mean tight binding; most listed sequences are background and not binding sites; double strand, one strand shown.

Sequence	binding signal
GGTCATGA	0.13 E-score
AATGTGCA	-0.073 E-score
ATGAAAGC	-0.135 E-score
CAGTTGCA	0.105 E-score
GATCATTA	-0.00836 E-score
AGGCCCCC	-0.0695 E-score
CGGCAAGA	-0.00915 E-score
CCAGGATA	0.217 E-score
CAATGTCA	-0.0669 E-score
CGAACGCC	-0.0373 E-score
AAGGTCGG	0.0818 E-score
CGCTCGAC	-0.111 E-score
CAGGGACA	0.114 E-score
AACGATGC	-0.297 E-score
GATTCGGC	0.0237 E-score
GACGACAA	-0.0732 E-score
ATATGTCG	-0.0925 E-score
CCACAATC	-0.116 E-score
ACATCTGG	-0.0493 E-score
CGTTGGTA	0.151 E-score
CTTCGGCC	-0.227 E-score
ACCATAGT	-0.0938 E-score
AACTCATA	-0.21 E-score
GCGTCTGA	-0.162 E-score

Sequence	binding signal
GCTCTGAC	0.0191 E-score
CTCAAAGA	-0.149 E-score
GCGCGCGC	-0.0199 E-score
CTGATTAC	0.0572 E-score
AAAGGGGC	-0.0825 E-score
TGGATGAA	-0.081 E-score
CCACATGC	-0.0463 E-score
CAAGATCG	-0.17 E-score
ATAAACTC	0.0256 E-score
ACCTTAGC	0.071 E-score
AAGCGTTG	-0.0832 E-score
GCATGGGA	0.00583 E-score
AGGCATTG	-0.127 E-score
CCAGCCGG	-0.131 E-score
CAGGAGAC	-0.0162 E-score
ACGAGCAT	0.0697 E-score
GCGTATAC	0.158 E-score
ACAGCCTA	-0.102 E-score
ATTGGCCG	-0.188 E-score
ACCTAGCG	0.0695 E-score
CCCCTTCA	0.0576 E-score
GGTGCAGA	0.134 E-score
ACATATGG	-0.0667 E-score
ATGATTTC	-0.298 E-score

Sequence	binding signal
AAGATAAG	-0.0231 E-score
CGCTACCA	-0.0893 E-score
GATAGAAC	-0.0734 E-score
AAAATCCG	-0.00153 E-score
CTACAGCA	-0.101 E-score
GAGCCGCA	-0.213 E-score
ACATAACG	-0.19 E-score
GTTGGGTA	0.109 E-score
GCATACCC	0.11 E-score
CTCTTGTC	-0.0153 E-score
CTACGTGA	0.0294 E-score
AGGGTCAC	0.0913 E-score
GAGTCATC	0.0854 E-score
CCACTTTC	-0.187 E-score
AACCTCAC	0.0747 E-score
AGGGTTAT	0.111 E-score
CTCCACTC	-0.00681 E-score
ACCCCAGG	0.249 E-score
AAGAGAGT	-0.0808 E-score
CCTGTAGC	-0.139 E-score
ATTTGAAG	-0.223 E-score
CTACTCAG	-0.183 E-score
CTAGTTAA	-0.0661 E-score
CCACTCCG	0.122 E-score

Sequence	binding signal
ACCCTTAG	0.172 E-score
CAGGGAAG	-0.176 E-score
GCGCGAAC	0.0694 E-score
CAGAGGAA	-0.163 E-score
TAAAGTCA	-0.223 E-score
ATTGACAG	-0.246 E-score
GGATGAAA	-0.0945 E-score
CAATCTCG	-0.152 E-score
GTCGAAGA	-0.191 E-score
CCCAGCGG	0.0612 E-score
AACTAAAG	-0.0943 E-score
ATAGCGCC	0.0881 E-score
ATTATACA	0.165 E-score
TGACAGCA	-0.0817 E-score
AACGTGGA	-0.255 E-score
GAGACGAA	-0.152 E-score
ATGGTGTG	0.405 E-score
ACTATCAG	0.142 E-score
AAGTCGAC	-0.0133 E-score
AAAGGTTG	-0.186 E-score
GACAATGC	-0.171 E-score
ATAGTTCA	-0.173 E-score
